Reference: patent US20230312682A1 (published 2023)

Tests used:
[1] = target: T1, CD47 on the surfaces of cells (human, UniProt Q08722); assay: flow cytometry on Daudi cells, FITC anti-human Fc
T1 construct: whole, on cells; The cell type is named in the assay or readout of each row; also called CD47 on the surfaces of Daudi cells; CD47 on the surface of a cell
Method: The binding capacity of the prepared SIRP-Fc-IgG1 mutants to CD47 on the surfaces of Daudi cells (human lymphoma cells) was determined by flow cytometry. Experimental procedure: After being counted, Daudi cells were inoculated into a 96-well round-bottom culture plate at 2E5 cells/150 μL by using a PBS solution containing 1% bovine serum albumin (BSA). To the 96-well plate described above were added 50 μL of SIRPα-Fc fusion protein mutants serially diluted with the PBS solution. The plate was incubated at room temperature for 1 h and then centrifuged, and the supernatant was discarded. Then the cells were washed twice with PBS. An FITC-labeled goat anti-human (Fc-Specific) antibody (1:1000 diluted with PBS containing 1% BSA) was added. The plate was incubated at room temperature for half an hour and centrifuged, and the cells were washed and then tested for mean fluorescence intensity (MFI) in the FITC channel on a flow cytometer (CytoFLEX Cytometer System, purchased from Beckman Coulter). The experimental data were processed using the software provided with the flow cytometer, and the mean fluorescence intensity was calculated. The data were analyzed and plotted in GraphPad Prism 6, and EC₅₀ was calculated.

CD47-His [2] = target: T2, CD47-His (human, UniProt Q08722 fragment); assay: ELISA, plate coated with CD47-His, anti-human Fc-HRP detection
T2 construct: also called Human CD47-His; SIRPα-Fc fusion protein's ligand CD47-His
Method: (§1) Method: Human CD47-His prepared in Example 1.3 was diluted to 100 ng/mL with a sodium carbonate buffer, and then the dilution was added to a microplate at 100 μL per well. The plate was incubated at room temperature for 2 h and washed with PBST. The plate was blocked by adding PBST containing 1% bovine serum albumin (BSA) to each well and incubated at room temperature for 1 h. The plate was washed twice with PBST, and serially diluted antibodies or fusion proteins were added. The plate was incubated for half an hour and washed twice with PBST. A properly diluted HRP-labeled goat anti-human (Fc-Specific) secondary antibody was added, and the plate was incubated for half an hour. After the plate was washed, a color developing solution was added for color development, and the color development was terminated with a stop solution. The OD450 was read using on a microplate reader. The data were analyzed in GraphPad Prism 6 and plotted, and EC₅₀ was calculated.

CD47-His [3] = target: T2, CD47-His; assay: as above; remark: listed apart in the source
Method: as §1

CD47-His [4] = target: T2, CD47-His; assay: SPR (Biacore 8K), captured on Protein A chip, CD47-His as analyte
Method: Biacore is a method commonly used for molecular interaction analysis based on the principle of surface plasmon resonance (SPR for short). Here, Biacore was used to determine the affinity of the SIRP mutants described above and anti-CD47 antibodies for the extracellular end of CD47. Experimental method and procedure: The SIRP mutant or anti-CD47 antibodies were diluted to a concentration of 1 μg/mL with HBS-EP⁺ buffer (pH 7.4, purchased from Cytiva, catalog No. BR-1006-69). […] A 6 M solution of guanidine hydrochloride was used as a regeneration buffer. Sensor Chip Protein A (purchased from Cytiva, catalog No. 29-1275-55) was used to capture antibody on Biacore 8K (purchased from GE Healthcare). Then CD47-His was used as an analyte and allowed to flow over the chip, and an association-dissociation curve was obtained. After the chip was regenerated with the regeneration buffer, another cycle was carried out. The data were analyzed using Biacore 8K Evaluation Software.

[5] = target: T1, CD47 on the surfaces of cells; assay: cell-based or functional assay
[6] = target: T1, CD47 on the surfaces of cells; assay: cell-based or functional assay; remark: listed apart in the source
CD47-His [7] = target: T2, CD47-His; assay: ELISA, plate coated with CD47-His, anti-human Fc-HRP detection; remark: listed apart in the source
Method: as §1

CD47-His [8] = target: T2, CD47-His; assay: as above; remark: listed apart in the source
Method: as §1

B1: Mutant-I31L + V27L + L4V + Q5K + E1# + E2T + E65D + S66A (Fc fusion)
chain: TEVKVIQPDKSVSVAAGESAILHCTLTSLLPVGPIQWFRGAGPARELIYNQKEGHFPRVTTVSDATKRENMDFSISISNITPADAGTYYCVKFRKGSPDTEFKSGAGTELSVRAKPSGGGGS[sequence of human IgG1 Fc omitted]
notes: SIRP-Fc-IgG1 mutant, IgG1 Fc; also called M30
- EC50 [1]: 0.154 nM
- Height of top plateau [1]: 3780 MFI

B2: Mutant-I31L + V27L + L4V + Q5K + E1# + E2T + E65D + S66A + E47Q + E70S (Fc fusion)
chain: B1 chain with E46Q, E69S
notes: also called M32
- EC50 [1]: 0.139 nM

B3: Mutant-I31L + V27L + L4V + Q5K + E1# + E2T + E65D + S66A + E47Q (Fc fusion)
chain: B1 chain with E46Q
notes: SIRP-Fc-IgG1 mutant, IgG1 Fc; also called M31; Mutant-131L + V27L + L4V + Q5K + E1# + E2T + E65D + S66A + E47Q
- EC50 [1]: 0.135 nM
- Height of top plateau [1]: 3690 MFI

B4: Mutant-I31L + V27L + L4V + Q5K + E1# + E2T (Fc fusion)
chain: B1 chain with D64E, A65S
notes: SIRP-Fc-IgG1 mutant, IgG1 Fc; also called M29
- EC50 [1]: 0.212 nM

B5: SIRP6-IgG4 (Fc fusion)
chain: EEELQVIQPDKSVSVAAGESAILHCTLTSLLPVGPIQWFRGAGPARQLIYNQKEGHFPRVTTVSDATKRSNMDFSISISNITPADAGTYYCVKFRKGSPDTEFKSGAGTELSVRAKPSGGGGS[sequence of human IgG4 Fc with S228P (EU numbers) omitted]
- EC50 (CD47-His [2]): 0.0555 nM
- Top (CD47-His [2]): 1.01 OD450
- EC50 (CD47-His [3]): 0.0478 nM
- Top (CD47-His [3]): 1.53 OD450
- Kd (CD47-His [4]): 0.225 nM
- koff (CD47-His [4]): 0.000377 s⁻¹
- kon (CD47-His [4]): 1.68e+06 M⁻¹ s⁻¹
- ADCP of Daudi cells by human macrophages, EC50 [5]: 0.092 nM
- ADCP of Daudi cells by human macrophages, Top (highest degree of ADCP by curve fitting) [5]: 27.6
- ADCP of Jurkat cells by human macrophages, EC50 [5]: 0.077 nM
- ADCP of Jurkat cells by human macrophages, Top (highest degree of ADCP by curve fitting) [5]: 40.7
- ADCC on Daudi cells with human PBMCs, EC50 [6]: 583 nM
- Top (CD47-His [7]): 1.54 OD450
- EC50 (CD47-His [8]): 0.0545 nM
- Top (CD47-His [8]): 1.54 OD450

B6: SIRP6-IgG4-V6L + H56R + A66G + K53R (Fc fusion)
chain: B5 chain with V6L, K53R, H56R, A66G
notes: also called SIRP10-IgG4; SIRP1O-IgG4
- EC50 (CD47-His [2]): 0.0344 nM
- Top (CD47-His [2]): 1.64 OD450
- Kd (CD47-His [4]): 0.0451 nM
- koff (CD47-His [4]): 7.9e-05 s⁻¹
- kon (CD47-His [4]): 1.75e+06 M⁻¹ s⁻¹

B7: SIRP6-IgG4-K53R (Fc fusion)
chain: B5 chain with K53R
notes: Site-directed mutant of SIRP6-IgG4
- EC50 (CD47-His [3]): 0.0384 nM
- Top (CD47-His [3]): 1.7 OD450

B8: SIRP6-IgG4-V6L + H56N (Fc fusion)
chain: B5 chain with V6L, H56N
- EC50 (CD47-His [8]): 0.0453 nM
- Top (CD47-His [8]): 1.67 OD450

B9: SIRP6-IgG4-V6L + H56R (Fc fusion)
chain: B5 chain with V6L, H56R
- EC50 (CD47-His [7]): 0.0453 nM
- Top (CD47-His [7]): 1.7 OD450
- EC50 (CD47-His [8]): 0.0393 nM
- Top (CD47-His [8]): 1.76 OD450

B10: SIRP6-IgG4-V6L (Fc fusion)
chain: B5 chain with V6L
- EC50 (CD47-His [3]): 0.0347 nM
- Top (CD47-His [3]): 1.71 OD450
- EC50 (CD47-His [7]): 0.0429 nM
- Top (CD47-His [7]): 1.63 OD450
- EC50 (CD47-His [8]): 0.0429 nM
- Top (CD47-His [8]): 1.63 OD450

B11: SIRP6-IgG4-A66T (Fc fusion)
chain: B5 chain with A66T
notes: as for B7
- EC50 (CD47-His [3]): 0.0748 nM
- Top (CD47-His [3]): 1.39 OD450

B12: SIRP6-IgG4-H56R (Fc fusion)
chain: B5 chain with H56R
notes: as for B7
- EC50 (CD47-His [3]): 0.051 nM
- Top (CD47-His [3]): 1.6 OD450

B13: SIRP6-IgG4-A66L (Fc fusion)
chain: B5 chain with A66L
notes: as for B7
- EC50 (CD47-His [3]): 0.0508 nM
- Top (CD47-His [3]): 0.913 OD450

B14: SIRP6-IgG4-H56N (Fc fusion)
chain: B5 chain with H56N
notes: as for B7
- EC50 (CD47-His [3]): 0.0431 nM
- Top (CD47-His [3]): 1.63 OD450

B15: SIRP6-IgG4-V6L + H56R + A66G (Fc fusion)
chain: B5 chain with V6L, H56R, A66G
- EC50 (CD47-His [2]): 0.0363 nM
- Top (CD47-His [2]): 1.48 OD450
- EC50 (CD47-His [7]): 0.0339 nM
- Top (CD47-His [7]): 1.77 OD450

B16: SIRP6-IgG4-A66G (Fc fusion)
chain: B5 chain with A66G
notes: Site-directed mutant of SIRP6-IgG4 (position 66 is A in SIRP6 after S66A)
- EC50 (CD47-His [3]): 0.0434 nM
- Top (CD47-His [3]): 1.62 OD450

B17: SIRP6-IgG4-H56Q (Fc fusion)
chain: B5 chain with H56Q
notes: as for B7
- EC50 (CD47-His [3]): 0.0641 nM
- Top (CD47-His [3]): 1.44 OD450

B18: mSIRP-Fc-IgG1 (Fc fusion)
chain: TEVKVIQPEKSVSVAAGDSTVLNCTLTSLLPVGPIRWYRGVGQSRQLIYSFTTEHFPRVTNVSDATKRSNLDFSIRISNVTPEDAGTYYCVKFQRGSPDTEIQSGGGTEVYVLAKGGGGS[sequence of human IgG1 Fc omitted]
notes: also called wild-type mouse SIRPα-Fc fusion protein
- EC50 (CD47-His [3]): 0.126 nM
- Height of top plateau (CD47-His [3]): 0.579 OD450
- EC50 [1]: 1.2 nM
- Height of top plateau [1]: 2580 MFI

B19: Mutant-I31L + V27L (Fc fusion)
chain: EEELQVIQPDKSVSVAAGESAILHCTLTSLLPVGPIQWFRGAGPARELIYNQKEGHFPRVTTVSESTKRENMDFSISISNITPADAGTYYCVKFRKGSPDTEFKSGAGTELSVRAKPSGGGGS[sequence of human IgG1 Fc omitted]
notes: SIRP-Fc-IgG1 mutant, IgG1 Fc; also called M27; Mutant-131L + V27L
- EC50 [1]: 0.208 nM

B20: Mutant-P44Q + A45S (Fc fusion)
chain: B19 chain with L27V, L31I, P44Q, A45S
notes: SIRP-Fc-IgG1 mutant; also called M12
- EC50 (CD47-His [3]): 0.187 nM
- Height of top plateau (CD47-His [3]): 0.0783 OD450

B21: Mutant-N51S + Q52F + K53T + E54T + G55E (Fc fusion)
chain: B19 chain with L27V, L31I, N51S, Q52F, K53T, E54T, G55E
notes: SIRP-Fc-IgG1 mutant; also called M14
- EC50 (CD47-His [3]): 0.456 nM
- Height of top plateau (CD47-His [3]): 0.054 OD450

B22: Mutant-I31L + V27L + L4V + Q5K (Fc fusion)
chain: B19 chain with L4V, Q5K
notes: SIRP-Fc-IgG1 mutant, IgG1 Fc; also called M28
- EC50 [1]: 0.211 nM

B23: Mutant-I31L + V27L + E65D + S66A + E47Q + E70S (Fc fusion)
chain: B19 chain with E47Q, E65D, S66A, E70S
notes: SIRP-Fc-IgG1 mutant, IgG1 Fc; also called M33; SIRP6
- ADCP of Daudi cells by human macrophages, EC50 [5]: 0.067 nM
- ADCP of Daudi cells by human macrophages, Top (highest degree of ADCP by curve fitting) [5]: 25.6
- ADCP of Jurkat cells by human macrophages, EC50 [5]: 0.14 nM
- ADCP of Jurkat cells by human macrophages, Top (highest degree of ADCP by curve fitting) [5]: 47.8
- EC50 [1]: 0.132 nM
- ADCC on Daudi cells with human PBMCs, EC50 [6]: 0.0781 nM
- ADCC on Daudi cells with human PBMCs, Top (highest degree of ADCC by curve fitting) [6]: 52.5

B24: Mutant-E65D + S66A (Fc fusion)
chain: B19 chain with L27V, L31I, E65D, S66A
notes: SIRP-Fc-IgG1 mutant; also called M16
- EC50 (CD47-His [3]): 0.122 nM
- Height of top plateau (CD47-His [3]): 0.152 OD450

B25: Mutant-F103I + K104Q (Fc fusion)
chain: B19 chain with L27V, L31I, F103I, K104Q
notes: SIRP-Fc-IgG1 mutant; also called M23
- EC50 (CD47-His [3]): 1.89 nM
- Height of top plateau (CD47-His [3]): 0.0881 OD450

Changes are numbered by the printed parent chain. In names and notes the source's numbering stands. Where two headings read alike, the source gives them in different places.
